Reference: PubChem BioAssay AID1345083 (National Center for Advancing Translational Sciences (NCATS), 2018)
In all, about 94,000 compounds went through this assay and about 6,200 (6.6%) were called active. The inconclusive results got no clear call from the source; some entries with a clear call stand among them for comparison. The call rests on the fitted dose curve; in most records, active means well fitted inhibition curve with a large enough effect; inconclusive means small, poorly fitted or top-dose-only effect; inactive means flat fitted curve, though single readings scatter. A potency beside an inconclusive call is a rough fit, not a confirmed value.

Test: Cytotoxic Profiling in HEK 293 Cell Line of Diverse Libraries Using Quantitative High-Throughput Screening; further: nearly all actives have a fitted effect of over 60% in size
Settings: HEK 293 viability, ATP luminescence (CellTiter-Glo), 48-72 h; series mostly up to 115 µM
In short: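 HEK 293 seeded at 250 cells/well receive compound via pintool. After 48 or 72 hr at 37 degree Celsius, 5% CO2 and 95% humidity, CellTiter-Glo is dispensed and luminescence read following 10 min at room temperature.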
Potency means the concentration at half of the fitted maximal effect; tags describe the fitted curve by direction and shape.

SMILES | Potency
O=C(NCC1CC1)c1cccc(OC2CN(Cc3ccc(OC(F)(F)F)cc3)C2)c1 | inconclusive: 50.1 µM [inhibitor, partial curve, poor fit]
CCc1cccc(C)c1NC(=O)Cn1c(N(C)Cc2ccccc2)nc(C)cc1=O | inconclusive: 39.8 µM [inhibitor, partial curve, poor fit]
CCC(=O)N1CCc2c(C(=O)N3CCN(c4cccc(OC)c4)CC3)cccc21 | inconclusive: 50.1 µM [inhibitor, partial curve, poor fit]
Cn1cnc2ccc(-c3cccc(O)c3)nc2c1=O | inconclusive: 79.4 µM [inhibitor, partial curve]
CCc1cccc(NC(=O)c2ccc3c(c2)N(C)C2CCCCCN2C3=O)c1 (configuration not stated) | active: 35.5 µM
Cc1ccc(C(=O)N2CCC(n3cc(-c4nc(-c5ccccc5)no4)nn3)CC2)c(C)c1 | inconclusive: 35.5 µM [inhibitor, partial curve, poor fit]
CN(Cc1cnccn1)C(=O)CC(c1ccccc1)c1ccccc1Cl (configuration not stated) | inconclusive: 89.1 µM [inhibitor, single point]
CCOCCCNC(=O)C1CCCCc2nnc(-c3ccccc3)n21 (configuration not stated) | inactive
COC1CN(c2ccc(C)cc2)C12CCN(C(=O)c1ccco1)CC2 (configuration not stated) | inconclusive: 89.1 µM [inhibitor, single point]
CCNC(=O)[C@@H]1C[C@H](NC(=O)c2ccc[nH]2)CN1C(=O)Cc1cc(C)no1 | inactive
NCc1ccc(-c2cccc(Cl)c2)cc1 | active: 44.7 µM
O=C(NC1CCCN(CCn2nc3n(c2=O)CCCC3)C1)c1ccc(C(F)(F)F)cc1 (configuration not stated) | inactive
CCC(=O)N1CC(Oc2ccccc2-c2nc(C3CC3)no2)C1 | inactive
Cc1noc2c(-c3ccc(CO)cc3)cc(-c3cccs3)nc12 | active: 39.8 µM
CC1(c2ccccc2)N(Cc2ccccc2C#N)C(=O)OC12CCN(C(=O)c1ccc(F)cc1)CC2 (configuration not stated) | inconclusive: 56.2 µM [inhibitor, partial curve, poor fit]
c1cncc(CN2CCNc3cc(-c4cn[nH]c4)ncc3C2)c1 | inconclusive: 126 µM [inhibitor, single point]
O=C(Nc1cccc(Br)c1)N1CCC2(CC1)SCC(=O)N2Cc1ccccc1 | active: 50.1 µM
COc1ccccc1C(=O)N1CCN(c2cc(-c3ccccc3)[nH]n2)CC1 | inconclusive: 79.4 µM [inhibitor, single point]
COc1ccccc1CN(C)C(=O)CC1C(=O)NCCN1CC1CCCCC1 (configuration not stated) | inconclusive: 89.1 µM [inhibitor, single point]
CN1C(=O)CC[C@]2(C(=O)NCc3ccc(Cl)cc3)CCCC[C@@H]12 | inactive
CCn1cc(-c2ccccc2)cc1C(=O)NC(C)c1cccnc1 (configuration not stated) | inconclusive: 70.8 µM [inhibitor, partial curve, poor fit]
CC(=O)N1CCCN(C(=O)[C@@H]2Cc3cn(C)c4cccc(c34)[C@H](CC(C)C)N2)CC1 | inactive
O=C(NCc1ccccc1F)c1ccc2c(c1)CN(C1CCCC1)CCO2 | inconclusive: 89.1 µM [inhibitor, single point]

SMILES | Potency
CCc1cccc(NC(=O)Cn2ccn3nc(-c4ccc(F)cc4)c(CO)c3c2=O)c1 | inconclusive: 44.7 µM [inhibitor, partial curve]
Cc1nc(-c2cn(C3CCCN(C(=O)c4ccc(C(C)(C)C)cc4)C3)nn2)no1 (configuration not stated) | inconclusive: 89.1 µM [inhibitor, single point]
COc1ccc(CNc2ncnc3c2CN(C2CCNC2)C(=O)CN3C)cc1OC (configuration not stated) | inconclusive: 89.1 µM [inhibitor, single point]
Cc1nc2c(c(-c3ccc(O)cc3)n1)CN(C(=O)C1CC1)CC2 | inactive
O=C(Nc1cccc(F)c1)N1Cc2[nH]cnc2C[C@H]1c1nc(-c2ccc(C(F)(F)F)cc2)no1 | inconclusive: 39.8 µM [inhibitor, partial curve]
Cn1nc(C(=O)NC2CCCN(c3cc(-c4ccc(F)cc4)[nH]n3)C2)c2ccccc21 (configuration not stated) | inconclusive: 39.8 µM [inhibitor, full curve, poor fit]
COc1cccc(C2Cn3nnc(-c4nc(-c5ccc(OC(C)C)cc5)no4)c3CO2)c1 (configuration not stated) | inconclusive: 89.1 µM [inhibitor, single point]
COc1ccc(-c2cc3c(=O)n(CCNC(=O)Cc4ccsc4)ccn3n2)cc1 | inconclusive: 50.1 µM [inhibitor, partial curve, poor fit]
O=C(NC1CCCc2c1[nH]c1ccccc21)c1ccc(Br)o1 (configuration not stated) | inconclusive: 10 µM [inhibitor, full curve, poor fit]
CC1Oc2ccc(NC(=O)c3ccccc3F)cc2CN(CCOc2ccccc2)C1=O (configuration not stated) | inconclusive: 50.1 µM [inhibitor, partial curve, poor fit]
Cc1ccc(CNC(=O)C2CCN(c3cnc4nccnc4c3)CC2)o1 | inactive
COc1cccc(NC(=O)Cn2c(-c3cccc(Cl)c3)nc(C)c(CCO)c2=O)c1 | active: 79.4 µM
CCOc1cccc(-c2nc(C(=O)Nc3ccc(OC)cc3)cs2)c1 | inconclusive: 89.1 µM [inhibitor, single point]
Cc1ccc(-n2c(C3CCN(C(=O)c4ccco4)CC3)n[nH]c2=O)cc1 | inactive
Cc1ccc2c(c1)N(CC(=O)N1C[C@@H](C)[C@](O)(C3CCC3)C1)C(=O)CO2 | inactive
COc1ccc(C2=NOC3(CCCN(C(=O)c4ccc5c(c4)OCO5)C3)C2)cc1 (configuration not stated) | inactive
CC#CCn1cc2c3c(cccc31)[C@H](CC(C)C)N[C@H](C(=O)N1CCC(O)CC1)C2 | inconclusive: 126 µM [inhibitor, single point]
Cc1ccc(C(=O)N2CC(c3ncc(C)n3Cc3ccccc3)C2)cn1 | inconclusive: 44.7 µM [inhibitor, partial curve, poor fit]
Cc1nc2scc(CC(=O)NCC(C)C)n2c(=O)c1-c1cc(C)n(-c2ccc(C(C)C)cc2)n1 | active: 79.4 µM
CC(C)c1nc2nccc(-c3ccccc3)n2n1 | inactive
NC(=O)c1cccnc1N1CCC(n2cc(-c3ccccc3Cl)nn2)CC1 | active: 79.4 µM
O=C(NCc1ccc(F)cc1)c1ccc2nc(-c3ccccn3)oc2c1 | inconclusive: 70.8 µM [inhibitor, partial curve, poor fit]
Cc1cc(=O)n(CC(=O)Nc2cc(Cl)ccc2C)c(N2CCC(C)CC2)n1 | active: 35.5 µM

SMILES | Potency
COc1ccc(-c2cn(C)c(=O)n3cc(CN4CC[S+](=O)([O-])CC4)nc23)cc1OC | inactive
Cc1cccc(CNC(=O)c2ccc(-c3nnc4ccc(NC(=O)C5CCC5)cn34)cc2)c1 | inconclusive: 89.1 µM [inhibitor, single point]
CNC(=O)c1cc(C2CC2)nc2c1c(C1CCCN(C(=O)c3ccccc3F)C1)nn2C (configuration not stated) | inactive
O=C(NCc1ccc(F)cc1)C1CN(c2cccc(Cl)c2)C(=O)N1 (configuration not stated) | inconclusive: 39.8 µM [inhibitor, partial curve]
Cc1ccc(NC(=O)C2CCc3nnc(CN[S+](=O)([O-])c4ccccc4Cl)n32)cc1 (configuration not stated) | inactive
COCc1cn(C[C@H]2C[C@@H](NC(=O)c3ccc4c(c3)OCO4)[C@H](O)[C@@H]2O)nn1 | inactive
COc1ccccc1-c1cccc(C(=O)N2CCN(C(=O)NC(C)C)CC2)c1 | inconclusive: 50.1 µM [inhibitor, partial curve, poor fit]
O=C(c1cc2n(n1)CCCN(Cc1ccccc1)C2)N1CC(n2cccn2)C1 | inactive
O=C1Nc2ccccc2O[C@H]2C[C@@H]1N(Cc1ccc(C(F)(F)F)cc1)C2 | active: 70.8 µM
COc1cccc(-c2cc(C3CCN(C(=O)Nc4ccc(OC)c(OC)c4)CC3)[nH]n2)c1 | inconclusive: 79.4 µM [inhibitor, partial curve, poor fit]
Cc1cccc(-c2noc(CCC(=O)N3CCC(C)(c4noc(-c5ccncc5)n4)CC3)n2)c1 | inconclusive: 50.1 µM [inhibitor, partial curve, poor fit]
COc1ccccc1-c1cc2[nH]ccc2c(C(=O)NCc2c(C)cc(C)[nH]c2=O)n1 | inconclusive: 70.8 µM [inhibitor, full curve, poor fit]
CN1C(=O)CO[C@H](c2ccc(NC(=O)c3ccc(C(F)(F)F)cc3)cc2)[C@H]1CO | inconclusive: 44.7 µM [inhibitor, full curve, poor fit]
COc1cccc2c1OCC(C(=O)N1CC(Oc3ccccc3C)C1)C2 (configuration not stated) | inactive
O=[S+]1([O-])NC2(CCCN(Cc3ccc(F)cc3)C2)CNc2ccccc21 (configuration not stated) | inconclusive: 50.1 µM [inhibitor, partial curve, poor fit]
Cn1ccc(NC(=O)c2ccc3c(c2)NC(C)(CCCCc2ccccc2)CO3)n1 (configuration not stated) | active: 44.7 µM
COCCN1C(=O)[C@@H]2C[C@@H](CN2Cc2ccc(OC)nc2)Oc2ccccc21 | inactive
N#Cc1cccnc1-c1ccc(C(=O)N2CCC(N[S+](=O)([O-])c3cccc(C(F)(F)F)c3)CC2)cc1 | inconclusive: 56.2 µM [inhibitor, partial curve, poor fit]
CC(C)NC(=O)c1nc2cccnc2n(CCc2ccccc2)c1=O | active: 20 µM
O=C1[C@H]2CN(Cc3ccccc3Cl)C[C@H]2C(=O)N1CCN1CCc2ccccc2C1 | inconclusive: 50.1 µM [inhibitor, partial curve, poor fit]
COC1C(=O)N(c2cccc(F)c2)C12CCN(C(=O)Cc1cccc(F)c1)CC2 (configuration not stated) | inconclusive: 50.1 µM [inhibitor, partial curve, poor fit]
